Test results from the supplement of paper PMC10126150.
Values marked as one replicate rest on one cluster of the flow cell; about a third of the high ones do not repeat.

System: ATP
Experiment: switch fluorescence ratio, 500 uM ATP over buffer (Cy3 cluster intensity, sum of 5 cycles each) (fold (ratio)); higher = stronger signal-on switching upon ATP binding; sequences stand for … in TCGTCGGCAGCGTCAGATGTGTATAAGAGACAGTTTTTTTTTTTTTTTTTTTTTTTTT…TC
Details: aptamer strand: ATP DNA aptamer (quencher-CACCTGGGGGAGTATTGCGGAGGAAGG + anchor), 100 nM annealed; ATP concentration: 500 uM; one replicate
In short: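 The quencher-labelled ATP aptamer, at 100 nM, was annealed to Cy3-labelled switching-strand clusters on a modified Illumina MiSeq flow-cell. The clusters were imaged in selection buffer, then after 15 min with 500 uM ATP at 22 °C, and this buffer/ATP cycle ran five times with NaOH stripping and re-annealing between runs. Per-cluster fluorescence ratios, summed target-cycle over summed buffer-cycle Cy3 intensity, were averaged per switch-domain sequence. Clusters outside 100-1000 RFU were excluded.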
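Further: ATP exposure 15 min at 22 °C before imaging.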

| Sequence | switch fluorescence ratio |
| --- | --- |
| GAGTTGATAG | 1 |
| TTTACACACT | 1.32 |
| TGACTATGCA | 1.03 |
| GAAATAGG | 0.94 |
| ATGCTCTTAC | 1.11 |
| TCTATGGGG | 0.989 |
| CTGACGGAGC | 4.88 |
| CATTAATAGC | 0.987 |
| AACCGAGGA | 1.04 |
| GCTTGGAATG | 1.02 |
| GAAGCTTGTG | 0.984 |
| CCTACGGTGC | 3.03 |
| CAGCTCGC | 1.02 |
| CGATGTGACG | 1.03 |
| GGGGTTATAC | 1.06 |
| ATGACAAAGA | 1.02 |
| GTAAGTATGG | 1.01 |
| CATGCCATCA | 0.976 |
| GAAACCACGA | 1.15 |
| CATACTATG | 0.971 |
| TGTTTCTGGC | 1.03 |
| CGTTAATTC | 1.1 |
| CGGTTCAGGG | 0.979 |

| Sequence | switch fluorescence ratio |
| --- | --- |
| CGTATATCAC | 1.06 |
| CGAACTACTC | 1.75 |
| ACCGAAAGGA | 0.989 |
| GCGACTTGGT | 1.03 |
| TCATATTACG | 1.05 |
| TGCCATTTGA | 0.99 |
| GTGGTGGCT | 1.03 |
| GAAAGGGCCA | 0.972 |
| TGCTATCGGT | 0.986 |
| TTCACTTCAA | 1.03 |
| AAGGCGCAAG | 1.02 |
| GCAAGTTCGC | 1.05 |
| GAGTAATATA | 1.02 |
| TAACTCTTTA | 0.96 |
| GTAACCAGCT | 0.999 |
| ATAAGTAGAC | 1 |
| GCACTAGCTT | 1.02 |
| CGACCAAGGT | 1.15 |
| AAGTGCCACG | 0.996 |
| GCTGCCGACT | 1.04 |
| TGGGGCTCCT | 1.01 |
| TGCGGTAGTT | 0.963 |
| ACCTGAAGGC | 1 |

| Sequence | switch fluorescence ratio |
| --- | --- |
| AAAAATGCAG | 1.01 |
| ATACAGGTGG | 1.02 |
| TTTTGCTGCT | 1 |
| TAGTAGAGGG | 0.958 |
| CCTGAGCGGC | 1.06 |
| GGAATTCA | 0.997 |
| AACCGCTTAT | 1.6 |
| CGTAGATGTT | 0.939 |
| TCAATGCAAA | 0.996 |
| AAACAAGTTT | 0.981 |
| CCGACAGGGG | 1.87 |
| GCCAATGGGA | 1.01 |
| ATGGTGATAC | 1.36 |
| ATGCGCTTTA | 1.04 |
| GTCGCATTCA | 0.968 |
| GGAGTCATAA | 1.08 |
| AAATACGGCA | 1.06 |
| AATCGCTCGT | 1 |
| AGGCGTGCTG | 1.16 |
| TTTTATAGGC | 1.04 |
| CGTGCGGGGC | 1.02 |
| TGCCCGATAC | 3.39 |
| TTATTGAAAT | 0.992 |

| Sequence | switch fluorescence ratio |
| --- | --- |
| TGAAAAGGT | 0.98 |
| TATCTGGCAC | 1.04 |
| TAAGTCTCAG | 0.992 |
| GGGATCGAAA | 1.01 |
| AGGCCTCGTT | 1 |
| GCCTACGACA | 1.46 |
| GGGCATTCAA | 1 |
| GCCGCGGTGT | 1.04 |
| GTACTGGGGA | 0.957 |
| TCAGTTTTAA | 0.977 |
| TTGCGTAATC | 1.2 |
| CGAGCTAGCC | 1.01 |
| TTGCAGATAG | 1.82 |
| GCATGAAGG | 0.999 |
| GCTAGTTCGT | 1.31 |
| AGTAATGTAC | 1.1 |
| AGTATATAAG | 0.995 |
| GGCGTGGTTT | 1.01 |
| CACTTCGCCG | 1.05 |
| TTAAGAGCTG | 1.02 |
| AAGAGAGCAG | 0.974 |
| CCATTCCTAG | 1.05 |
| ACACTGCTTC | 1.07 |

| Sequence | switch fluorescence ratio |
| --- | --- |
| GCATATAGAT | 1.04 |
| AACTGAGAT | 1.04 |
| TTCCCCGAC | 1.42 |
| TGCATATTTG | 0.967 |
| TGTGTTCGTT | 0.992 |
| TAGTGTAACT | 1.02 |
| GGTTAGTTCT | 0.988 |
| TTGACGATTA | 1.57 |
| GTCATTATTT | 1.01 |
| ACAAAGCTGC | 1.11 |
| AGCCAGATCA | 1.02 |
| TGAGGGACTT | 1 |
| GGTTCCAGTG | 0.995 |
| CTAAGCGGGG | 1 |
| GCCTATCCTG | 0.979 |
| CACATTAGTT | 1.07 |
| GCGAGATGCA | 0.972 |
| GTCTCCGTCA | 1.04 |
| AGTAATTCTC | 1.12 |
| CTATGTGG | 0.966 |
| GCCCTTGATT | 0.986 |
| TCCGTATCGG | 0.955 |
| ACCGTTGAAA | 1.01 |

| Sequence | switch fluorescence ratio |
| --- | --- |
| TTCAGGAAGG | 1.04 |
| ATGAATACGC | 1.08 |
| ACGCACAACC | 1.39 |
| CATTGGTTTT | 0.978 |
| CTAAACGGTT | 0.998 |
| TGAATTTTGG | 1.03 |
| AACGTTTCGT | 0.981 |
| GCTAAATCA | 1.02 |
| CTTCTAAGTG | 0.977 |
| GGTGTATAAG | 0.996 |
| ACCAAGGGGC | 1.14 |
| TATCAGGTCT | 1.02 |
| CGGAGCGTCG | 1.01 |
| TTAAACCAGT | 0.966 |
| ATAAGTATGC | 1.13 |
| CTTGACGCTC | 1.18 |
| AGGCCTGAGA | 0.973 |
| ACGTGGTGCT | 1.04 |
| TTGCAATGTG | 1.12 |
| CAACCAGTTG | 1.15 |
| TCGAAGAACG | 1.37 |
| CGCAGCCGTT | 1.03 |
| GCACTATTTA | 0.997 |

| Sequence | switch fluorescence ratio |
| --- | --- |
| AGTAATATCC | 1.07 |
| TACTTTAGGA | 0.987 |
| TTTTCGATCA | 0.978 |
| GAAGTCGTTA | 0.978 |
| TCGAAAGTGG | 0.992 |
| CTTTAACTT | 1.04 |
| TTGAGAACAG | 1.02 |
| TAGGTGGAAC | 1.02 |
| GTCACAGTGT | 1.01 |
| CCGCTCCCCT | 3.26 |
| TATATGTGAC | 1.03 |
| AGCAAGGAG | 1.12 |
| CATAGCTCGC | 0.963 |
| TAATAGGCAT | 0.99 |
| ACGTCGTCAG | 0.975 |
| GCCTCTGATC | 1.09 |
| ACGGAGAGTG | 1.03 |
| GCGATAACAA | 1.02 |
| CGACCAGTGA | 1.4 |
